From publication PMC10726135
The list shows a part of the results. At the low end of the ranking the order means little. Measured with an extract: partners may take part in the binding.

The sequences below were run against T1, HNF4alpha2 (COS-7 nuclear extract) (UniProt P41235) (assay: protein-binding microarray). Conditions: COS-7 nuclear extract on double-stranded Agilent 4x180k PBM; binding buffer, salt, pH and temperature not given; high values mean tight binding; double strand, one strand shown; sequences stand for … in …GCCTAGGGAGATTAGAGTATCGGTCGA.
T1 sequence: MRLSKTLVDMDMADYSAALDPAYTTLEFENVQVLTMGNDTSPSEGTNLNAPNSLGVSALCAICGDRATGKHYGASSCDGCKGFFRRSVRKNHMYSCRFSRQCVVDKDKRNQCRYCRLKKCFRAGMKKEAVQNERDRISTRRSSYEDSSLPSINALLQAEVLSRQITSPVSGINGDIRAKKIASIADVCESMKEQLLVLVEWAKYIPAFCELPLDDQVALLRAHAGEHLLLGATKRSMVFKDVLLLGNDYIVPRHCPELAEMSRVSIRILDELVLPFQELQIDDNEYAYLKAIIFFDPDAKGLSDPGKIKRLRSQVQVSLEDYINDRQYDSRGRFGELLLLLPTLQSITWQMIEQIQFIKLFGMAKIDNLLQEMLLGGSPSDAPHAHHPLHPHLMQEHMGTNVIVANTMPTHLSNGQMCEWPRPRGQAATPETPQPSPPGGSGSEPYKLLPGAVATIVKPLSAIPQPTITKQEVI

Sequence | binding signal (log2 normalized intensity)
CTCAAATCTAGCCAATGATGCTAGCCAATA | -1.11
TTTAGCTTTAGTTCAGGGAAGAGGGCACTC | 0.456
AGGGATTGTTTAGGTACAAAGTCCATTGGA | 7.7
CTTGACTTTGGACTTTCAAAAGTTAAGGTC | 3.32
TCCCGTCCCTGCCAAAGGTCAGAGTTGAAC | 3.72
TCAATGGCCCCAGTGCACGTGCATGAGGCC | 0.00807
GAATTTTTCTGTATAAGACAACCTTTGTTC | 4.46
TTTAACGGTCTGCCCTCTTGTCCTTCCCCT | 3.08
AAATACAAGGACACTGAAAGGCATTCTGCC | -1.14
GTAAGGAAGACAAGACAAGGAAGTTAAGAG | -1.05
GCTGTTCCTTTCCTGCTGTTCCTTCAACAC | 1.21
AACCCATCCACCCATCCAAAGGTCAGCAAT | 4
GTTGGAATTTGGTCACAGAAAGTGACGTGC | 1.69
TGTGCTCATGACAAAGAAATGTAACCTTTG | 3.97
TTCTCCACTGGGAAGTAGAAGAAAGCTTCA | -1.08
ACATCAGCTGAGCAGAGAGGACCCTGTGAT | 1.17
TTCCTGCCTGGTCCGCCCTTCCCCGCTCTC | 2.46
GGATTTGGAGATCAGAGTCCAGCTGTGCCC | 2.44
CCAGTTTGCATTTTCATGGACAGAGATTAT | -0.196
TAAGATTAGGTGCTGAGCAACTATAAAACA | -0.893
CCTTCAAGGATTAGCAGATAAATCTAGGCC | -0.975
GATATCCATCATGTTTATCTTCTGCTTTCA | -1.13
AACTTGTGTTCAGAGCTTGCTGCATTCCCC | 1.44
CAACTAGGGCAAAGGTTAGCTTGGACAGAG | 2.72

Sequence | binding signal (log2 normalized intensity)
TGTGTAACATTCCACAGGAACCAAAGTCTA | 1.66
TTTCTGTCTAGGTGCCAGAATTGCTGCTCC | -0.947
CAAAAGAGAAAACTCCCTCAGAGATGTTTA | -1.05
GGGCTGCGGAGGCGACTGCAGATTGACCTG | 3.36
ACCGATTGTGTTTTAGGCAAACATTTGCGC | 0.846
AAACTCTGAAGGCAAATTCTTAGAATTGCA | -0.775
GCTGAATTCCCATCTAAGACTTTATTTGAA | -0.261
GCATCTGTTTTTATTTCCCCTTTCTGTTGG | 2.36
AAGCATTTGGAGATTGCCACCTTGGTGAGA | 0.715
AGTCAGGTACCTGCTTCTGCCCCAGTTAAC | 3.09
TGTTTAACAGAGATTTGCAGCTCAAAGTGC | 0.949
CCCAAGTAATAGCCGTTTCTGTCCAGAGTT | 0.304
AGATGCTTTGAAGTGTAAAAGGATCATGGA | 0.452
GCGCGTGTTCCCGTCCGTGCGGTCGGGCGC | -0.786
AATGATGTTTACATTCCAGAAAAGGCCTAA | 0.346
AAACACCCACCTTGTTATCTTGTCTCTTCT | 1.44
CAGTTTGTTCTTGGGGCCCACAGAGTCCAG | 2.44
GTACAAAGCCCCATATTCATAGACTCTGCA | 0.766
GTGTGAAGTAATCCCCAGTATAAACAACAC | 1.68
ATCTGAGTGTCAAAAACAATACCAGGAGCT | -1.16
GCCACGGGAAAACCTGACTGCGCTCCCAGA | -1.2
GTTCTAGCCCTGGTGAGTCAGTTCCCCTGC | 1.5
AGTCTGTGGAGACACTGCCAGTGTCTCAGG | -0.608
CCAGGGACTTTGAACACTTCTTTGTTACTT | 2.44

Sequence | binding signal (log2 normalized intensity)
CACAAATTGGAGAGCATCTTGGACTTGGGA | 2.73
CCCAACCAAAAACAAAACTGGTCATACAGC | -1.15
GGGGATTCTTTCTAAAGTGACTTAGCAGGA | 0.943
ACTTTTGCAATGTTTCCAAACCCCTCGGGA | 0.897
CAAGATAAGATACGAAGGGTTTAAAGGGCA | 2.43
GTTGCAGCATTGTTGGGATTAAGGAGAAGG | -1.08
CACCTCCCTCAGAGCTCAGATGAACTTTGC | 5.96
ACTTTGGACTTGGGACTTTCGAGTTAATGC | 4.12
AAAGGCTGTCACACTTGCCCTTTGCCCTCA | 8.34
CAGATAGATGGTCAGTGAACTGTGGTTGAC | 1.56
ACAATTGTCCCCAAGATTGAGGCCAGCAAA | -0.859
TCATTGCCTCTGGGCTTTGATGGACATTGC | 3.19
CAAGGGGGTGGTGAAATGGGGGAAGGGCTG | -1.14
TAAGCCACAGACAAATATTTGCTGTTACTC | -0.954
CTCAATCTTTGCCCTCTTGGTATCAGCTTT | 2.23
AAAAAGTCCCTGGTCCCATAGGAAAGTGAG | -0.855
CATCAAAGCCAGGACTTCTAGAGTGAGCCA | -1.09
GGGGCTGGGCCCCACAGTGCATCTGATAAG | -0.518
GAAGAGGACTTTTTTTTGCCTAACTGCTGC | -1.08
GTGAAGGACACAGAATGACTTTCAGAAAGT | 0.537
GTTTCTCCACAGCCTCACCAACAGGATTGT | -1.14
AAAAACACCTGGTTCCTTGCAAGATAAGGG | -1.08
GCCTTAAGAGTCAAAGGGCAAAGGAATAAA | 1.58
TGCTCCTGCACTTTTGTGCTCTGTACCCGG | 2.23
